Reference: publication PMC4336329 (PLoS ONE, 2015)
The campaign covered roughly 310,000 compounds. About 2,200 (0.71%) showed an effect of 50% or more. The effect is printed as a negative number. This is one part of the list.

These molecules were tested against human ether-à-go-go-related gene (hERG) potassium channel (human, UniProt Q12809) (assay: primary screen, population patch clamp on CHO cells stably expressing hERG).
Sequence of human ether-à-go-go-related gene (hERG) potassium channel (Q12809 whole entry, looked up): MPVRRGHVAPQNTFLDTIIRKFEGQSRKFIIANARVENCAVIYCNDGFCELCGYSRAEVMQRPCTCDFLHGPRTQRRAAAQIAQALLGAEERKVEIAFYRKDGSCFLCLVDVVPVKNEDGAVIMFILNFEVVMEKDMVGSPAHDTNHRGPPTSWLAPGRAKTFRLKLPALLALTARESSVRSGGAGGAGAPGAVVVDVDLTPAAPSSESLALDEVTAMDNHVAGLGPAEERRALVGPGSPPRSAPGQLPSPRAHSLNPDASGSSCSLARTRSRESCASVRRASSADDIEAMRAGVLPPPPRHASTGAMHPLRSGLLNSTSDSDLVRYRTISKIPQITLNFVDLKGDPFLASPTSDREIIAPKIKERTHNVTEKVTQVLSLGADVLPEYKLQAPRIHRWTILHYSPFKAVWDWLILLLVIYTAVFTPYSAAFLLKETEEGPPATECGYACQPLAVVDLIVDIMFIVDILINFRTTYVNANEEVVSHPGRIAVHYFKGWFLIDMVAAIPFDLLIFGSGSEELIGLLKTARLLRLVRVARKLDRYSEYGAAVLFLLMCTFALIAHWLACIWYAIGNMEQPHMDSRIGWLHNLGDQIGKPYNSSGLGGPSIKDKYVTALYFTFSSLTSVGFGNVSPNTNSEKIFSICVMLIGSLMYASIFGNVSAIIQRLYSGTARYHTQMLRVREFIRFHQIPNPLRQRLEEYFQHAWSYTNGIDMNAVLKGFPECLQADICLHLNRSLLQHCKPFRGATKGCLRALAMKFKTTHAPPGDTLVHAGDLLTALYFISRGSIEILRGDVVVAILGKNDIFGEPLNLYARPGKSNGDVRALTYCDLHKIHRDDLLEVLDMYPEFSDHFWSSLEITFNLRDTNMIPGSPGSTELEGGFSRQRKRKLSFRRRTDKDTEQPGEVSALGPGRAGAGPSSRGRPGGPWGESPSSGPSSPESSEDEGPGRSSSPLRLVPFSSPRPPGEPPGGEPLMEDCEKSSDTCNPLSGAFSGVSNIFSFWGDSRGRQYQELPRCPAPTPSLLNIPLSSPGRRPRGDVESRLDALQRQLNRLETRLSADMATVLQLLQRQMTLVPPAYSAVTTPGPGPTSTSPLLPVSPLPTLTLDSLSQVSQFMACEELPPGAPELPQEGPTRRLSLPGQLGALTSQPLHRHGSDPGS

Structure (SMILES)	hERG current change (%, negative = inhibition) at 1uM
N#Cc1ccccc1NC(=O)CN1CCOCC1	11.3%
COc1ccc(CNC(=O)C2CC(c3cccc(OC)c3)=NO2)cc1 (centres unmarked)	11.6%
Clc1ccc(OCCSc2ncccn2)c(Br)c1	17.1%
O=C(Nc1nc2ccccc2[nH]1)c1ccc(Cl)c([N+](=O)[O-])c1	7.03%
Cc1nc2ccccc2[nH]c1=O	15.1%
COc1ccc(SCCN2CC[C@@H](NC(=O)OCc3ccccc3)CCC2=O)cc1	3.41%
O=C1NCCn2ccc(=O)cc21	2.21%
O=C(Cc1ccccc1)c1nc2ccccc2s1	15%
C/C(N)=C(/C#N)C(=O)CSc1nc(-c2ccccc2)c(-c2ccccc2)o1	12.1%
CCOC(=O)c1[nH]c2c(c1C)C(=O)CC(c1ccc(OC)c(OC)c1)C2 (centres unmarked)	-4.12%
CC(Oc1cccc2cccnc12)C(=O)N/N=C/c1ccc2c(c1)OCO2 (centres unmarked)	11.3%
CC(C)c1ccc(NC(=O)Cn2cccc2C2=NC(c3ccccc3)CO2)cc1 (centres unmarked)	1.57%
O=c1[nH]c(=O)n(Cc2ccco2)c(O)c1C=NCCN1CCNCC1	9.92%
O=C(NC1CCCC1)c1cc2nc(-c3ccco3)cc(C(F)(F)F)n2n1	17%
CCOc1ccc(C(c2c(NC(=O)c3ccco3)sc(C)c2C)N2CCOCC2)cc1 (centres unmarked)	8.05%
COc1ccc(C(=O)N2CCN(C3CCC(c4ccccc4)CC3)CC2)cc1OC (centres unmarked)	-60.4%
CC(C)Cn1c(N)c(C(=O)COC(=O)[C@@H]2CCCN2C(=O)c2cccs2)c(=O)n(C)c1=O	8.91%
C=C(C)C(=O)Nc1ccc2c(c1)OCCOCCOCCO2	2.65%
O=C(/C=C/c1ccccc1)NCc1ccc2c(c1)OCO2	4.23%
Cc1cc(C(=O)CSc2nnc(-c3ccccc3)o2)c(C)n1CC1COc2ccccc2O1 (centres unmarked)	4.84%
CSc1ncc(C(=O)Nc2ccccc2)cn1	13.6%
CC(C)CC(=O)NNC(=O)c1ccc(Cl)cc1	19.9%
COc1ccccc1CN(C)C(=O)c1sccc1-c1ccccc1	15.4%
COc1ccc(C(=O)Nc2ccccc2C(=O)NC(Cc2c[nH]c3ccccc23)C(=O)O)cc1 (centres unmarked)	9.17%
COc1ccc(-c2cnc(N)nc2-c2ccc(OC)cc2O)cc1	10.5%
O=C(CNS(=O)(=O)c1c(Cl)cccc1Cl)OCc1csc(-c2ccccc2)n1	4.76%
